Measurements published in PubChem BioAssay AID624417 (National Center for Advancing Translational Sciences (NCATS), 2012).
Several values for one entry are separate records, joined by “and”; a condition that tells them apart may be missing. Equal entries are not always repeated. Screen size: about 410,000 compounds; about 6,400 (1.6%) were called active. Inconclusive means that the source gave no clear call. Such entries were picked first, then a sample of the others. Calls follow the shape of the dose curve; as a rule, active = well fitted inhibition curve with a large enough effect; inconclusive = small, poorly fitted or top-dose-only effect; inactive = no such curve, though single readings can be large or run the other way. A potency beside an inconclusive call is a rough fit, not a confirmed value.

The compounds below were run against Glucagon-like peptide 1 receptor (Homo sapiens) (UniProt P43220) (assay: qHTS of GLP-1 Receptor Inverse Agonists (Inhibition Mode)). Details: HEK293 GLP-1R CRE-luciferase, luminescence, 24 h, GLP-1R form is constitutively active; activity change, negative = inhibition: at 38.3 µM (top of the series) unless noted.
UniProt P43220, sequence (P43220 whole entry, looked up): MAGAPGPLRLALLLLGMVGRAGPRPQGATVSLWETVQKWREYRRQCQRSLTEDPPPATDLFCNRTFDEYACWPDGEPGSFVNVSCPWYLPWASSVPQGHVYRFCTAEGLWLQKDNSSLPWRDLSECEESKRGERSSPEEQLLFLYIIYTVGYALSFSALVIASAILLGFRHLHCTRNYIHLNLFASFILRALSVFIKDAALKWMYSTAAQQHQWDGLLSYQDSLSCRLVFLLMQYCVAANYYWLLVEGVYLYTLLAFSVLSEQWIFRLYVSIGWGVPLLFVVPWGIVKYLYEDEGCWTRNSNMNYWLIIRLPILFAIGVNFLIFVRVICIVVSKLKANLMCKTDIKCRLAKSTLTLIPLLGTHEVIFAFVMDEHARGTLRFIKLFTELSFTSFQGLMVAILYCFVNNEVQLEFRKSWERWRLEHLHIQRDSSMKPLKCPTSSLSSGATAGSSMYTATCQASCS
Method in brief: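 qHTS in 1536-well format: reporter HEK293 cells expressing constitutive GLP-1R activity in DMEM + 10% Nu serum, 24 hr with compounds at 37 deg C, luminescence read after 12 min with detection reagent.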
% is scaled to controls: 0 for no effect and ±100 for the full control effect; potency is read from the fitted curve at half-maximal effect; tags tell the direction and shape of the fitted curve.
Also: nearly all actives have a fitted effect of over 55% in size.

Potency, inconclusive:
O=C(CN1c2ccccc2S(=O)(=O)c2ccccc21)Nc1cccc(C(F)(F)F)c1 10 µM [inhibitor, single point]
Cc1cccc(Cn2c(Cc3ccccc3)nc3ccccc32)c1 20 µM [inhibitor, single point] and 28.2 µM [inhibitor, single point]
COc1ccc(CCN2CCC(CNC(=O)c3cnn(-c4cccc(Cl)c4)c3C3CCN(C(=O)OC(C)(C)C)CC3)CC2)cc1 12.6 µM [inhibitor, partial curve, poor fit]
OC(CN1CCN(Cc2ccccc2)CC1)c1ccc(Br)cc1 (stereo not drawn) 5.01 µM [inhibitor, partial curve, poor fit]
Cc1ccc(S(=O)(=O)N(CC(=O)NCCC2=CCCCC2)Cc2ccccc2)cc1 28.2 µM [inhibitor, single point]
O=C(Cc1csc(Nc2nc(=S)[nH]c3ccccc23)n1)NCCCN1CCN(c2ccccc2F)CC1 28.2 µM [inhibitor, single point]
Cc1ccc(-c2cc(Cc3ccccc3)c(=O)[nH]n2)cc1 28.2 µM [inhibitor, single point]
O=C1CCCN1c1ccc(S(=O)(=O)Nc2ccc3c(c2)OCCO3)cc1 2.24 µM [inhibitor, full curve]
COC(=O)c1c(CSc2ccc(Cl)cc2)noc1C(=O)NCc1ccco1 15.8 µM [inhibitor, single point]
Cc1cccc([C@@H]2[C@@H]3C(=O)N(Cc4ccccc4)C(=O)[C@@H]3[C@]3(Cc4ccccc4)C(=O)N(c4ccc(C(F)(F)F)cc4)C(=O)N23)c1 10 µM [inhibitor, partial curve, poor fit]
O=C(c1cc(-c2cccs2)on1)N1CCN(C(c2ccccc2)c2ccccc2)CC1 2.24 µM [inhibitor, full curve, poor fit]
CC(C)(C)OC(=O)N[C@H](C(=O)OC(C)(C)C)c1ccc2c(c1)OCO2 8.91 µM [inhibitor, partial curve, poor fit]
COc1ccc(Cl)cc1S(=O)(=O)N1CCN(c2ccc(F)cc2)CC1 10 µM [inhibitor, partial curve, poor fit]
CCOC(=O)c1ccc(NC(=O)CCc2nc3cccnc3n2Cc2cccs2)cc1 28.2 µM [inhibitor, single point]
COc1ccc(Br)cc1CN(C)CC(=O)Nc1ccccc1Cl 11.2 µM [inhibitor, single point]
CCC(CC)C(=O)Nc1nnc(S(=O)(=O)N2CCCc3ccccc32)s1 2.82 µM [inhibitor, partial curve, poor fit]
COc1cc(OC)cc(C(=O)N2CCN(C3CCC(C)CC3)CC2)c1 (stereo not drawn) 2.82 µM [inhibitor, full curve, poor fit]
CCC1Oc2ccccc2N(Cc2ccccc2C)C1=O (stereo not drawn) 28.2 µM [inhibitor, single point]
Cc1cccc(NC(=S)Nc2ccc(Oc3ccccc3)cc2)n1 2.82 µM [inhibitor, full curve, poor fit]
CCC1(c2ccc(F)cc2)NC(=O)N(CC(=O)c2ccc[nH]2)C1=O (stereo not drawn) 28.2 µM [inhibitor, single point]
Cc1ccccc1CNC(=O)C(=O)NCC(c1cccs1)S(=O)(=O)c1cccs1 (stereo not drawn) 5.01 µM [inhibitor, partial curve]
CCCCNc1cc(C)nc(NCc2ccccc2)n1 7.08 µM [inhibitor, partial curve, poor fit]
COC(=O)c1nn(-c2ccccc2)c(Sc2ccc(Br)cc2)c1/C=N/O 10 µM [inhibitor, partial curve, poor fit]
S=c1[nH]nc(Cc2ccc(Br)cc2)n1/N=C/c1ccc(Cl)cc1 15.8 µM [inhibitor, partial curve, poor fit]
CCC1(c2ccc(F)cc2)NC(=O)N(CC(=O)Nc2ccccc2Cl)C1=O (stereo not drawn) 31.6 µM [inhibitor, single point]
COc1ccc(NC(=O)CN2CCN(c3ccc(F)cc3)CC2)cc1Cl 1 µM [inhibitor, full curve, poor fit]
O=C(CN1C(=O)S/C(=C\C=C\c2ccccc2)C1=O)N1CCCCC1 7.94 µM [inhibitor, partial curve, poor fit]
COc1cccc(CN(C)C(=S)Nc2ccc(C)c(C)c2)c1 28.2 µM [inhibitor, single point]
CC(C)(C)c1ccc(S(=O)(=O)N2CCC(CO)(CC3CCCCO3)CC2)cc1 (stereo not drawn) 11.2 µM [inhibitor, single point]
CC(C(=O)Nc1ccc2c(c1)OCCO2)N(C)CC(=O)Nc1ccccc1Br (stereo not drawn) 28.2 µM [inhibitor, single point]
O=C(NCc1ccc(F)cc1)c1ccc2oc(=O)n(Cc3ccccc3)c2c1 28.2 µM [inhibitor, single point]
CCc1nn2cc(C(=O)c3ccccc3O)cnc2c1-c1ccc(F)cc1 8.91 µM [inhibitor, partial curve, poor fit]
COc1cccc(CNC(=O)Cn2c(=O)oc3cc(S(=O)(=O)N4CCCCCC4)ccc32)c1 28.2 µM [inhibitor, single point]
O=C(CN1CCN(C/C=C/c2ccccc2)CC1)NC(=O)NC1CCCCC1 15.8 µM [inhibitor, single point]
Cc1cccc(COc2ccccc2C(=O)OCC(=O)N(C)c2c(N)n(Cc3ccccc3)c(=O)[nH]c2=O)c1 10 µM [inhibitor, partial curve, poor fit]
Nc1ncc([N+](=O)[O-])c(N2CCCCCC2)n1 7.94 µM [inhibitor, partial curve, poor fit]
O=c1c(Cl)c(N/N=C/c2ccc(Br)cc2)cnn1-c1ccccc1 17.8 µM [inhibitor, partial curve, poor fit]
Cn1c(=O)c2cc(NC(=S)NCc3ccccc3F)ccc2n1Cc1cccc(C(F)(F)F)c1 12.6 µM [inhibitor, partial curve, poor fit]
C[C@@H]1CN([C@@H](C)CO)S(=O)(=O)c2ccc(Br)cc2O[C@H]1CN(C)Cc1ccccc1F 28.2 µM [inhibitor, single point]
Cc1ccc(S(=O)(=O)N2CCSC2c2ccco2)cc1 (stereo not drawn) 10 µM [inhibitor, partial curve, poor fit]
CN(C)c1oc(-c2ccccc2Cl)nc1P(=O)(c1ccccc1)c1ccccc1 28.2 µM [inhibitor, single point]
CC(C)C[C@@H](CN1CCCC1CN1C(=S)NC[C@@H]1Cc1ccccc1)N1C[C@H](Cc2ccccc2)N(CCc2ccccc2)C1=S (stereo partly drawn) 28.2 µM [inhibitor, single point]
O=C(Cn1nnc(-c2ccccc2Cl)n1)N/N=C/c1ccc2c(c1)OCO2 7.08 µM [inhibitor, partial curve, poor fit]
Cc1ccccc1NC(=O)c1ccc(N(Cc2ccccc2)S(C)(=O)=O)cc1 28.2 µM [inhibitor, single point]

Potency, active:
Cc1ccc2c(c1)nnn2C1CCN(S(=O)(=O)c2ccc(C(=O)N3C(C)CCCC3C)cc2)CC1 (stereo not drawn) 3.98 µM
CCN(Cc1ccccc1)c1ccc(/C=N/N=C(N)N)cc1 10 µM
CC(NC(=O)c1ccco1)C12CC3CC(CC(C3)C1)C2 (stereo not drawn) 10 µM

Potency, inactive:
O=C(COC(=O)c1ccc(Cl)cc1)NC(=O)NC1CCCC1
CC1C[N+](=C2C=C(N3CCOCC3)CC(C)(C)C2)CC(C)O1 (stereo not drawn)
CCn1nc(C)cc1C(=O)N1CCCC(C(=O)c2cccc(OC)c2)C1 (stereo not drawn)
Cc1cn([C@H]2C[C@H](O)[C@@H](/C=C/C(=O)NCc3ccco3)O2)c(=O)[nH]c1=O
C=Cc1ccc(Cn2c(SCC(=O)N3CCN(c4ccc(F)cc4)CC3)nc3ccccc32)cc1
O=c1c2oc3ccccc3c2n(Cc2cccc(F)c2)c(=O)n1Cc1ccc2c(c1)OCO2
CCc1nnc(NC(=O)CSc2nnc(-c3ccco3)o2)s1
O=C(O)c1cccc(N2C(=O)c3ccc4c5c(ccc(c35)C2=O)C(=O)N(c2cccc(C(=O)O)c2)C4=O)c1
CC(=O)Nc1nonc1-c1nnc(SCc2ccccc2)n1C
COC(=O)c1ccc(NC(=O)CCc2c(C)nn(-c3ccc(N4CCCCC4)nn3)c2C)cc1
COC(=O)c1ccccc1NC(=O)CCS(=O)(=O)c1nc(-c2ccc3c(c2)OCO3)cc(C(F)(F)F)n1
COc1ccccc1CNc1ncnc2c1nnn2C
N#C/C(=C\c1ccc([N+](=O)[O-])o1)c1nc2ccccc2[nH]1
Cc1cc(C)n2nc(C(=O)N/N=C/c3c4ccccc4cc4ccccc34)nc2n1
Clc1ccc(C=NN2CCCCCC2)cc1

Activity change, negative = inhibition, inconclusive:
COc1ccc(Br)cc1CN1CCN(Cc2c[nH]c3ccccc23)CC1 -96.5% [inhibitor]
